Measured values as given in the supplement of paper PMC11417369.
± gives the standard deviation of the averaged measurements. This is one part of the list.

Each sequence was assayed on PfAP2-G AP2 domain (GST-tagged) (assay: gcPBM binding intensity (ln(normalized median fluorescence intensity)); higher = stronger DNA binding).
Procedure, shortened: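 Binding intensity values are the highest Masliner-normalised natural-log median intensity among replicate spots of either probe orientation. The binding step lasted 1 h in 1× PBS with 1% milk, 0.2 mg/ml BSA, 0.5% salmon testes DNA and 0.03% Triton X-100, using GST-tagged P. falciparum DNA-binding domains expressed in E. coli on an Agilent 4 × 180k array of primer-extended double-stranded 36-bp intergenic genomic probes plus negative controls. Alexa488 anti-GST antibody and a 488 nm scan detected bound protein.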

Row | Sequence | gcPBM binding intensity (ln)
1 | CCATTTACCCTTGCCATGCACACTTTTTTATAGAAA [CACACA_site3505] | 10.5 ± 0.3
2 | TATATAGTAATATATACACACACTTGTCTTGTAAAA [CACACA_site990] | 10.1 ± 0.21
3 | AAAATTTCAATAAATACACACATATATATATATATT [CACACA_site1685] | 9.99 ± 0.16
4 | AAATAATATATGAATGCACACAGTAAAAATTAAAGA [CACACA_site2252] | 10.1 ± 0.13
5 | ATATATACCTAAGACACACACATATAGATTTATATA [CACACA_site6498] | 9.97 ± 0.028
6 | TTCTTTGTGGTATAGATACACACTATATTAATATGA [CACACA_site2150] | 10.4 ± 0.2
7 | ATTTTAGATATCCTGCGTACACAAATTGCTTTATTT [XGTACX_site7149] | 11.6 ± 0.76
8 | AAGATTAATATTTTATGTACATATGTAATATATATG [XGTACX_site4367] | 11.2 ± 0.69
9 | ATATTTTTATGATGTATCCAAGAAATGGAACTATAT [CACACA_negctrl_site1268] | 10.2 ± 0.27
10 | AAGAATACACCACGCACACACACTTGAGAAAAAATA [CACACA_site3828] | 10.5 ± 0.45
11 | TATCTTATTTTAAAAGTGCATGGAAAGGGGTTTTTG | 10.2 ± 0.16
12 | TGTATAAGTGCCGTTATACACACGTTATATAAATAT [CACACA_site438] | 10.005 ± 0.007
13 | TTTGAAATAAAAAGGTGTACACTCGATTAATAAATA [XGTACX_site6943] | 11.8 ± 0.98
14 | ACTATCATTTTTTTAACACACAAAAAAAATAAAATA [CACACA_site3519] | 10.1 ± 0.3
15 | TTTTAGCACTTATTATAAGATATCAAAAAGATGGGT [XGTACX_negctrl_site325] | 10.12 ± 0.085
16 | ATAAATTTATATACTTGTACATATATATATTACATA [XGTACX_site6697] | 11.1 ± 0.57
17 | TATATATACATATACACACACACACCCATATATATA [CACACA_site2246] | 10.1 ± 0.2
18 | GAATATAAAAAAGAATGTACTTGAACAGTCCTAAAA [XGTACX_site745] | 10.9 ± 0.59
19 | ACATGTGAAGGGAACATAAATTGGGGTTTTATATTG [XGTACX_negctrl_site508] | 10.4 ± 0.12
20 | AAATTATAAATAATTTGTACATAAAAATTGGTAAAG [XGTACX_site5197] | 11 ± 0.44
21 | ATGTAGTCTCAAGACTGTACAAACAAGTAAATAAAA [XGTACX_site4120] | 10.8 ± 0.4
22 | TTTTTTATATTAAATGAAGAATATACAAAATTTTAA [CACACA_negctrl_site558] | 9.87 ± 0.24

Row | Sequence | gcPBM binding intensity (ln)
23 | TTTTGTTAGTTTTTTTTCTTATATTACATTTTCACG [CACACA_negctrl_site1466] | 9.96 ± 0.18
24 | AAAGGAAGAAAAAATAGTACATATATATATATATAA [XGTACX_site766] | 11.2 ± 0.87
25 | ACAATTTTATTTAAAGTGCATGTAAAATTAAAACTT | 10.2 ± 0.18
26 | TATACATTTATGTACACACACATATATGTATATTTA [CACACA_site2966] | 11.4 ± 1
27 | AATAAATATCAATACACACACACAAAAGTGAATAAA [CACACA_site3763] | 10.1 ± 0.14
28 | TCCATCCACATATATGTACACACATATATATATATA [CACACA_site8970] | 11.6 ± 0.89
29 | GTTAAGGGTATATATACACACATATGTAATACATGA [CACACA_site5650] | 10.2 ± 0.23
30 | CAATTTTTCTATCATTGTACTTTTATATAATAGTGT [XGTACX_site1810] | 11.4 ± 0.94
31 | AATTGTTCTATGATTTGTACACACTTTTTTTTAAAA [XGTACX_site5984] | 11.4 ± 0.85
32 | ATTATAAATACACGCACACACACTTATATATATATA [CACACA_site5776] | 10.5 ± 0.3
33 | AAAAAATTGACTAATGCACACAATTACATATATATA [CACACA_site1689] | 10.1 ± 0.21
34 | AAATAGTAAATAAGGGGTACAAAAAAAAAAAAAAAA [XGTACX_site8362] | 11.4 ± 1
35 | ATGAAATATATTATATGTACATATTTATTTTTTATA [XGTACX_site7319] | 11.3 ± 0.91
36 | ATTTTTTACGTATAGTACAAAGTTTTATGATACATA [CACACA_negctrl_site965] | 10.8 ± 0.45
37 | CATTATAAAAAATAAAAAAGAAATAATTGTATATGC [CACACA_negctrl_site478] | 9.985 ± 0.064
38 | TAATATTGCAAATATAAAAAAAAATAAACCATATAT [XGTACX_negctrl_site458] | 10.06 ± 0.021
39 | TTCTTTTTTAACAACAAAAAAAAAAAAAAAAAAAAA [TGCATGCA_negctrl_site87] | 9.68 ± 0.47
40 | AAGGAGAAATAAATATTAAAAAATTTATATATATAT [CACACA_negctrl_site1801] | 9.74 ± 0.38
41 | TAAACCTGTAGAGATGCATGCATTGTTAACATGGTG [TGCATGCA_site515] | 9.895 ± 0.007
42 | TTTTTTGCTTTCAACACACATACAATCTATATAATC [CACACA_site4125] | 10 ± 0.19
43 | TTAATTATGGACAGGGTGCACATGAATAATAATACC | 10.9 ± 0.57
44 | TATATTATAATAAGACGTACAAGGATGTTAAAACTT [XGTACX_site5828] | 11.6 ± 1

Row | Sequence | gcPBM binding intensity (ln)
45 | GTTTGTATGTCCAAATGTACATATGATTTTATGAAA [XGTACX_site6595] | 11.2 ± 0.76
46 | TACATTAACGGATTATTTCTCAATACAACATCATTT [CACACA_negctrl_site981] | 9.925 ± 0.064
47 | AAAATATTAATTAATACATGCATATATATATATATA [TGCATGCA_site585] | 10.2 ± 0.49
48 | TATATTGTATAAAAATGTACATGCAATAAATTTAGT [XGTACX_site5621] | 11.2 ± 0.64
49 | AAAAAATATTGAAGTACACACATTATAAACTTTTTT [CACACA_site5029] | 11.5 ± 0.76
50 | ACCTAATTCAAATACAGTACATATACAATATATATA [XGTACX_site2779] | 11.1 ± 0.67
51 | AAAATTAAAAATTACTGTACGTATTAGAGAATAAAT [XGTACX_site2567] | 11.6 ± 1
52 | TTCTTAAATGTAAATGTATATGTATTAAAAAGAGAA [TGCATGCA_negctrl_site597] | 9.91 ± 0.18
53 | TTATAATATTAATGTGCACACAATTAAAATATTATA [CACACA_site2046] | 10.4 ± 0.31
54 | TACTGTGTTTTGGTTGTACACACGCTACATTATATA [CACACA_site8863] | 11.5 ± 0.84
55 | AGGATATAAATATTCACACACACATGGAGATATATA [CACACA_site6317] | 9.825 ± 0.092
56 | ATAGTATACAGACACACACACACACCCATATATATA [CACACA_site1736] | 10.3 ± 0.23
57 | AAATAAATATATAATACACACAAAAATATAAAATGG [CACACA_site5943] | 10.16 ± 0.028
58 | TATAACTTTTTTATTACACACCTATGTAATATTATA [CACACA_site944] | 9.98 ± 0.057
59 | AACAGACATAGAAACACACATACATACATACATACA [CACACA_site2479] | 10.6 ± 0.25
60 | ATACTAAATGAACACACACACATATATATATATAAT [CACACA_site4232] | 10.1 ± 0.2
61 | AAGGGAAATATTGAAACACACACGAACCCACGTATT [CACACA_site252] | 10.165 ± 0.007
62 | ATGTTTTATATTTTTTTTTTGTTTGCTTGTTTCCTC [CACACA_negctrl_site870] | 9.84 ± 0.071
63 | TTATTTATTTATTATAGTTCACTTGAAAATACAAGA [CACACA_negctrl_site1480] | 9.96 ± 0.26
64 | CATATATACAGTAACACACACAAAAAAATATGAATA [CACACA_site3996] | 10.13 ± 0.057
65 | TTTCTTTTTAACTCTTACATAATAGGTGGTAGAAGG [TGCATGCA_negctrl_site176] | 10.3 ± 0.36
66 | TTGTTGTGTATTATCGTGCACATAATATAAAAGATT | 10.5 ± 0.47

Row | Sequence | gcPBM binding intensity (ln)
67 | AATAGTGTCATAAAAACTATTATCATATAATGTGAA [CACACA_negctrl_site1578] | 9.87 ± 0.085
68 | TAATTTATAACACGCGCACACATATATATATAGTAA [CACACA_site121] | 10.5 ± 0.33
69 | AAAGACGTTTATAAATGTACATACACTTTAAAAGTT [XGTACX_site8753] | 11 ± 0.43
70 | CCCCATTTATCTTAAGCATGCCATGGTTTTAGATAT [TGCATGCA_site24] | 10.6 ± 0.42
71 | AAAAAATATAAAAAAACACACAAAAAAAAAAAAAAA [CACACA_site1382] | 9.62 ± 0.32
72 | TTCTTAAAAAATCAAACACACATATATAAATACATA [CACACA_site5301] | 10 ± 0.18
73 | ATAAAAAAAAAAAATACACACATATATATATATATA [CACACA_site1709] | 9.96 ± 0.47
74 | GTATATATCTCAGAGCATAATAGTATAATTCGGTCA [CACACA_negctrl_site876] | 9.98 ± 0.18
75 | AATTATTTTAGAAACACACAAATTAGAAAAAACATA [CACACA_site7673] | 10.2 ± 0.24
76 | ATTAAAACAAAATGTACACACATATAATTTAATGAC [CACACA_site878] | 11.2 ± 0.81
77 | TTTATCTTTTTTTGTTGTACAGATGTTTATATTTTA [XGTACX_site4065] | 11.2 ± 0.68
78 | AATATATATATAAATAGTACATATAAAGAGAATTTT [XGTACX_site3168] | 11.1 ± 0.52
79 | CAGAAATATTCTTATACACACTGTTCTTATATTCCT [CACACA_site4318] | 10.15 ± 0.049
80 | TGATATTTCATCATAGTGCAATATGGCATATAAATA [GTGCAC_site9433] | 9.92 ± 0.14
81 | TGTAATAAACTACTTTTTTTTTTTTTTTTTTTTTTT [CACACA_negctrl_site1021] | 11 ± 0.34
82 | AATATCAAAATAACATGTACATGTTATATTTTATTT [XGTACX_site5891] | 11 ± 0.52
83 | AATAACATTATTTTATGTACACATGAAAAATAAAAT [XGTACX_site4657] | 11.5 ± 0.92
84 | ATTTATTAATCATATACACACATATATTTGTATTTA [CACACA_site1336] | 9.88
85 | TTATAGACATATATAGGTACACATATTTTCAATCCC [XGTACX_site8230] | 11.3 ± 0.77
86 | ACCTCATAATATTTAACACACAAAATTATCTGTATG [CACACA_site5015] | 9.98 ± 0.028
87 | TATTTTTTTAAAATAGGTACACAATCAAACATTTAT [XGTACX_site8785] | 11.4 ± 0.97
88 | TTTAAATAAAAATGGAGTACTCTAAAAAAAAAAAAA [XGTACX_site1233] | 11.4 ± 0.88
